Reference: paper PMC4336329 (PLoS ONE, 2015)
Among all 310,000 compounds or so, about 2,200 (0.71%) showed an effect of 50% or more. The effect is printed as a negative number. The list shows a part of the results.

biological target: human ether-à-go-go-related gene (hERG) potassium channel (human, UniProt Q12809); experiment: primary screen, population patch clamp on CHO cells stably expressing hERG
Sequence (Q12809 whole entry, looked up): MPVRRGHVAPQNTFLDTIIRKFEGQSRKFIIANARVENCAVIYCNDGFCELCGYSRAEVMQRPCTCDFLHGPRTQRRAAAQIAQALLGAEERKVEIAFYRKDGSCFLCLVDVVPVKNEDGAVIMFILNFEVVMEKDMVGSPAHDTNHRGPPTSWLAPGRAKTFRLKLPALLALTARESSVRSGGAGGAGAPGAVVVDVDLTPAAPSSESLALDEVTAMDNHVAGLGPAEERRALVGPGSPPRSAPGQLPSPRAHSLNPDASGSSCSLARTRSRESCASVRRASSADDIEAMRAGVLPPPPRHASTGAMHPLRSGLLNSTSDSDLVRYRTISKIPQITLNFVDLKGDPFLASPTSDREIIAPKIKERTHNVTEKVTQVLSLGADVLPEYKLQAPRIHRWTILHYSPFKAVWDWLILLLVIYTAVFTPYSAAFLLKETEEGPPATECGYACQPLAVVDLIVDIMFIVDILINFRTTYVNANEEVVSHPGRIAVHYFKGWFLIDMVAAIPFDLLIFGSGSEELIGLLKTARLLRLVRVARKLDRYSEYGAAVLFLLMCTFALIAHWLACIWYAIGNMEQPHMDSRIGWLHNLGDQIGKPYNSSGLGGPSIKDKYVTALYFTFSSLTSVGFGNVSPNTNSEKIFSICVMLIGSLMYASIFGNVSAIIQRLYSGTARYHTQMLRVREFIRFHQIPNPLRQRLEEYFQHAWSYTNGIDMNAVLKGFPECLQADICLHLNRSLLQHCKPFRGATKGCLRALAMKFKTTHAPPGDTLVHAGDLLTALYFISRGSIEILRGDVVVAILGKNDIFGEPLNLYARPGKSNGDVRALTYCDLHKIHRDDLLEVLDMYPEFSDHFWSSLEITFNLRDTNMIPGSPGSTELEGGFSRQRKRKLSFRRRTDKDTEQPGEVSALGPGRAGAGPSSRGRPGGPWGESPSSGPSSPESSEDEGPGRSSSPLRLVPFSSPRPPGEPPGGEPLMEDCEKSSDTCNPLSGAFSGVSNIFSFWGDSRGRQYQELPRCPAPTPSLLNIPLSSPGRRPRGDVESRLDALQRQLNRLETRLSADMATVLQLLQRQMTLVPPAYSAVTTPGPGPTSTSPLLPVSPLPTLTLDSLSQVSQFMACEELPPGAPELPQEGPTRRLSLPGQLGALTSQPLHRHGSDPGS

| SMILES | hERG current change (%, negative = inhibition) at 1uM [%] |
| --- | --- |
| COc1cccc(/C=N/NC(=O)c2ccc(-c3ccccc3)cc2)c1O | 5.03 |
| C=CCN=C(C)C1=C(O)CCC1=O | 15.5 |
| Cc1csc2nc(CNS(=O)(=O)c3ccc4c(c3)CCCC4)cn12 | 7.63 |
| CCN(CC)S(=O)(=O)c1ccc(-c2nnc(SCc3nnc(-c4ccc(C)cc4)o3)o2)cc1 | 12.2 |
| COc1cc2ccccc2c2c1CCCC2=O | 17 |
| O=[N+]([O-])c1cnccc1Nc1ccc(F)cc1 | 4.8 |
| CC(C)Cc1nc(Nc2ccc(S(=O)(=O)N3CCCC3)cc2)c2nnn(Cc3ccccc3)c2n1 | 5.97 |
| CCn1c(SCc2ccc(C)cc2)nnc1C1CCN(S(=O)(=O)c2ccc(OC)cc2)CC1 | -5.14 |
| CC1CCCCC12NC(=O)N(CC(=O)Nc1ccc3c(c1)OCCCO3)C2=O (stereo not shown) | 2.21 |
| O=C(/C=C/c1c(F)cccc1Cl)N1CCc2ccccc2C1 | 13.7 |
| CN(C)C(CNC(=O)c1ccc(S(=O)(=O)NCc2ccco2)cc1)c1ccccc1 (stereo not shown) | 12.3 |
| CC(C)NC(=O)C(c1ccc(F)cc1)N(C(=O)CCC(=O)Nc1ccccn1)C1CCCC1 (stereo not shown) | 16.7 |
| COc1ccc(N(Cc2cc3ccc(C)cc3[nH]c2=O)C(=O)c2ccco2)cc1 | 15.6 |
| COc1ccc([N+](=O)[O-])cc1NC(=O)c1ccc(CN(c2ccc(C)c(C)c2)S(C)(=O)=O)cc1 | 12 |
| Cc1[nH]n(C2=NCCS2)c(=O)c1N=Nc1ccccc1 | 18 |
| Cc1nn(-c2ccccc2)c(C)c1NC(=O)COC(=O)Cc1cccc(C(F)(F)F)c1 | -1.04 |
| CCN1CCN(C(c2cccs2)C(C)NC(=O)Oc2ccccc2)CC1 (stereo not shown) | -24.6 |
| O=C(COc1coc(CN2CCN(c3ccccc3F)CC2)cc1=O)N1CCc2ccccc21 | -1.09 |
| O=C(Cn1cc2c(n1)CCCC2)N1CCOCC1 | 6.4 |
| COc1ccc(-c2[nH]nc3c2C2(C(=O)N(CC(=O)O)c4ccccc42)C(C#N)=C(N)O3)cc1OC (stereo not shown) | 12.4 |
| Cc1cc2cc(CN(Cc3cccs3)C(=S)NCc3ccco3)c(=O)[nH]c2cc1C | -3.92 |
| COC(=O)C1CCN(S(=O)(=O)c2cn(C)c(=O)n(C)c2=O)CC1 | 27.8 |

| SMILES | hERG current change (%, negative = inhibition) at 1uM [%] |
| --- | --- |
| COc1cc(OC)c(C(=O)NCCCn2ccnc2)cc1OC.Cl | 7.95 |
| O=C(CCN1C(=O)c2ccccc2C1=O)Nc1ccccc1C(=O)N1CCOCC1 | 3.05 |
| CC(=O)c1cccc(NC(=O)CC2Oc3ccc(C)cc3NC2=O)c1 (stereo not shown) | 5.49 |
| CCCC12CN3CC(C)(CN(C1)C3c1ccc([N+](=O)[O-])o1)C2=O (stereo not shown) | 5.7 |
| O=C(c1ccccc1)N1N=C(c2ccccc2O)CC1c1ccc(Br)cc1 (stereo not shown) | 21.1 |
| Cc1ccc(C(=O)NCC(=O)OC(C)C(=O)NC2CCCc3ccccc32)cc1 (stereo not shown) | 2.54 |
| CC(C(=O)O)N1C(=O)C2C3c4ccccc4C(c4ccccc43)[C@@H]2C1=O (stereo partly shown) | 20.6 |
| O=C(COC(=O)Cc1ccsc1)NC1CCCCCC1 | -4.66 |
| CC(C)=CC(=O)Nc1ccc(Cl)cc1 | -4.15 |
| COc1ccc(NC(=O)C2=NN(C3CCS(=O)(=O)C3)C(=O)CC2)cn1 (stereo not shown) | 16.7 |
| CC(Sc1nc(-c2ccccc2)cc(C(F)(F)F)n1)C(=O)Nc1ccc2c(c1)OCO2 (stereo not shown) | 8 |
| O=C(COc1ccc(Cl)cc1)NCc1nnc(SCC(=O)N2CCCc3ccccc32)o1 | 0.965 |
| O=C(O)c1c2c(nc3ccccc13)-c1ccccc1CC2 | 14.4 |
| CCOc1ccccc1C(=O)Nc1ccc2nc(N3CCN(c4ncccn4)CC3)cc(C)c2c1 | 4.48 |
| CCS(=O)(=O)N1CCC(C(=O)N2CCN(c3ccccc3)CC2)CC1 | 5.11 |
| COCc1cc(=O)n2[nH]c(N)nc2n1 | 10.8 |
| O=C(CSCc1ccc(Br)cc1)N1CCCC1 | 11.4 |
| CCCc1cc(=O)[nH]c(SCc2ccccc2Cl)n1 | -1.94 |
| COc1cc(/C=C/C(=O)OCC(=O)Nc2ccc(C)c(S(=O)(=O)N3CCCCC3)c2)ccc1O | 1.95 |
| COc1ccc(N(CC(=O)NCc2ccccc2)C(=O)Cn2nnc(-c3ccccc3F)n2)cc1OC | -1.32 |
| CCSc1nnc(NC(=O)Cc2ccc(OC)c(S(=O)(=O)N3CCOCC3)c2)s1 | 10.8 |
